Here are results for 32 sequences from PMC12820563, “FoxP3 forms a head-to-head dimer in vivo and stabilizes its multimerization on adjacent microsatellites”.

Some of the results follow.

This test concerns the target T1, MBP-FoxP1dN (Mus musculus, UniProt P58462 326-579).
T1 sequence: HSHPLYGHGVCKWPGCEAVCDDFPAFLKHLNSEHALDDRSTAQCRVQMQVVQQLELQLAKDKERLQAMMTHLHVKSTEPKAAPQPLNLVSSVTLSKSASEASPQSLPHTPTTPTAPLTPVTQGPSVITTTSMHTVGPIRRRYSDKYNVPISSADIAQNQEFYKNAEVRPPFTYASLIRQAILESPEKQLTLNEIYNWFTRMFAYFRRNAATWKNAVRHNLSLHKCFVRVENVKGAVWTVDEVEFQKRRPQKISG
The experiment in a line: PD-seq (MBP pull-down with sequencing); 20 mM Tris-HCl pH 7.5, 100 mM NaCl, 1.5 mM MgCl2, 0.4 uM protein, 0.1 uM dsDNA library, 30 min, room temperature, amylose pull-down; high values mean tight binding. Particulars: protein: recombinant; tags: His6-MBP; chain copies: 2; dsDNA, one strand shown. An outline of the steps: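 Protein and DNA were mixed at 0.4 µM and 0.1 µM and held for 30 min at room temperature in Tris pH 7.5 buffer with NaCl and MgCl2; the protein was a His6-MBP-tagged, N-terminally truncated mouse FoxP3 or FoxP1 fragment from E. coli, and the DNA a Klenow-filled double-stranded degenerate library. Amylose resin captured the complexes, which were washed three times. Binding is read as reads-per-million enrichment of pull-down versus input after Illumina sequencing, with replicates pooled.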
Take “GATGATTGTTCTCCCAGCTGATGAATTGCTTAACTCGAGTAAACAAATTTTCCTAATCTTTCTGTTCAAGCGCCATCTAC”: the binding signal was 0.986 RPM ratio (pull-down/input).

For the sequence “GATGATTGTTCTCCCAGCTGATGAATTGGATTTCTCGAGTAAACAAATTTTCCTAATCTTTCTGTTCAAGCGCCATCTAC”, the binding signal is 0.806 RPM ratio (pull-down/input).

Regarding “GATGATTGTTCTCCCAGCTGATGAATTATCTGTTTCGAGTAAACAAATTTTCCTAATCTTTCTGTTCAAGCGCCATCTAC”, the binding signal was 1.18 RPM ratio (pull-down/input).

As to “GATGATTGTTCTCCCAGCTGATGAATTGGGGCAATCGAGTAAACAAATTTTCCTAATCTTTCTGTTCAAGCGCCATCTAC”, the binding signal is 1.01 RPM ratio (pull-down/input).

Take “GATGATTGTTCTCCCAGCTGATGAATTTACCCTGTCGAGTAAACAAATTTTCCTAATCTTTCTGTTCAAGCGCCATCTAC”: the binding signal is 1.1 RPM ratio (pull-down/input).

Consider “GATGATTGTTCTCCCAGCTGATGAATTCAAGCGCTCGAGTAAACAAATTTTCCTAATCTTTCTGTTCAAGCGCCATCTAC”, for which the binding signal was 0.861 RPM ratio (pull-down/input).

For “GATGATTGTTCTCCCAGCTGATGAATTTAGAATCTCGAGTAAACAAATTTTCCTAATCTTTCTGTTCAAGCGCCATCTAC”, the binding signal is 0.905 RPM ratio (pull-down/input).

As to “GATGATTGTTCTCCCAGCTGATGAATTCGAGTTTTCGAGTAAACAAATTTTCCTAATCTTTCTGTTCAAGCGCCATCTAC”, the binding signal was 1.08 RPM ratio (pull-down/input).

With “GATGATTGTTCTCCCAGCTGATGAATTTAGACCCTCGAGTAAACAAATTTTCCTAATCTTTCTGTTCAAGCGCCATCTAC”, the binding signal is 0.884 RPM ratio (pull-down/input).

“GATGATTGTTCTCCCAGCTGATGAATTTGCACGATCGAGTAAACAAATTTTCCTAATCTTTCTGTTCAAGCGCCATCTAC”: the binding signal was 0.952 RPM ratio (pull-down/input).

Take “GATGATTGTTCTCCCAGCTGATGAATTCGAAACATCGAGTAAACAAATTTTCCTAATCTTTCTGTTCAAGCGCCATCTAC”: the binding signal is 1.1 RPM ratio (pull-down/input).

Turning to “GATGATTGTTCTCCCAGCTGATGAATTAAAACCGTCGAGTAAACAAATTTTCCTAATCTTTCTGTTCAAGCGCCATCTAC”, the binding signal was 0.89 RPM ratio (pull-down/input).

Take “GATGATTGTTCTCCCAGCTGATGAATTCTTCCTATCGAGTAAACAAATTTTCCTAATCTTTCTGTTCAAGCGCCATCTAC”: the binding signal was 0.892 RPM ratio (pull-down/input).

“GATGATTGTTCTCCCAGCTGATGAATTATTATCTTCGAGTAAACAAATTTTCCTAATCTTTCTGTTCAAGCGCCATCTAC”: the binding signal is 1.17 RPM ratio (pull-down/input).

For the sequence “GATGATTGTTCTCCCAGCTGATGAATTTGCGAGGTCGAGTAAACAAATTTTCCTAATCTTTCTGTTCAAGCGCCATCTAC”, the binding signal is 0.867 RPM ratio (pull-down/input).

As to “GATGATTGTTCTCCCAGCTGATGAATTCTCATTCTCGAGTAAACAAATTTTCCTAATCTTTCTGTTCAAGCGCCATCTAC”, the binding signal was 0.831 RPM ratio (pull-down/input).

Take “GATGATTGTTCTCCCAGCTGATGAATTTCAGCGGTCGAGTAAACAAATTTTCCTAATCTTTCTGTTCAAGCGCCATCTAC”: the binding signal was 0.794 RPM ratio (pull-down/input).

Regarding “GATGATTGTTCTCCCAGCTGATGAATTTGTAGACTCGAGTAAACAAATTTTCCTAATCTTTCTGTTCAAGCGCCATCTAC”, the binding signal is 0.985 RPM ratio (pull-down/input).

As for “GATGATTGTTCTCCCAGCTGATGAATTGAGAGAATCGAGTAAACAAATTTTCCTAATCTTTCTGTTCAAGCGCCATCTAC”, the binding signal was 0.971 RPM ratio (pull-down/input).

Consider “GATGATTGTTCTCCCAGCTGATGAATTAGTGTCTTCGAGTAAACAAATTTTCCTAATCTTTCTGTTCAAGCGCCATCTAC”, for which the binding signal is 1.06 RPM ratio (pull-down/input).

For the sequence “GATGATTGTTCTCCCAGCTGATGAATTTAGCATATCGAGTAAACAAATTTTCCTAATCTTTCTGTTCAAGCGCCATCTAC”, the binding signal was 1.1 RPM ratio (pull-down/input).

Take “GATGATTGTTCTCCCAGCTGATGAATTTATGATATCGAGTAAACAAATTTTCCTAATCTTTCTGTTCAAGCGCCATCTAC”: the binding signal is 1.33 RPM ratio (pull-down/input).

Turning to “GATGATTGTTCTCCCAGCTGATGAATTACTCCCGTCGAGTAAACAAATTTTCCTAATCTTTCTGTTCAAGCGCCATCTAC”, the binding signal was 0.957 RPM ratio (pull-down/input).

As to “GATGATTGTTCTCCCAGCTGATGAATTGAGTTGCTCGAGTAAACAAATTTTCCTAATCTTTCTGTTCAAGCGCCATCTAC”, the binding signal was 0.953 RPM ratio (pull-down/input).

As to “GATGATTGTTCTCCCAGCTGATGAATTTCGGGAGTCGAGTAAACAAATTTTCCTAATCTTTCTGTTCAAGCGCCATCTAC”, the binding signal was 0.782 RPM ratio (pull-down/input).

In the case of “GATGATTGTTCTCCCAGCTGATGAATTGAATGCCTCGAGTAAACAAATTTTCCTAATCTTTCTGTTCAAGCGCCATCTAC”, the binding signal was 1 RPM ratio (pull-down/input).

In the case of “GATGATTGTTCTCCCAGCTGATGAATTATAAGGTTCGAGTAAACAAATTTTCCTAATCTTTCTGTTCAAGCGCCATCTAC”, the binding signal is 0.895 RPM ratio (pull-down/input).

For the sequence “GATGATTGTTCTCCCAGCTGATGAATTCCTCTGGTCGAGTAAACAAATTTTCCTAATCTTTCTGTTCAAGCGCCATCTAC”, the binding signal was 0.803 RPM ratio (pull-down/input).

For “GATGATTGTTCTCCCAGCTGATGAATTAATGCCATCGAGTAAACAAATTTTCCTAATCTTTCTGTTCAAGCGCCATCTAC”, the binding signal is 1.24 RPM ratio (pull-down/input).

Consider “GATGATTGTTCTCCCAGCTGATGAATTAGTATTATCGAGTAAACAAATTTTCCTAATCTTTCTGTTCAAGCGCCATCTAC”, for which the binding signal is 1.75 RPM ratio (pull-down/input).

“GATGATTGTTCTCCCAGCTGATGAATTCACACAGTCGAGTAAACAAATTTTCCTAATCTTTCTGTTCAAGCGCCATCTAC”: the binding signal is 0.96 RPM ratio (pull-down/input).

As to “GATGATTGTTCTCCCAGCTGATGAATTGATCGTGTCGAGTAAACAAATTTTCCTAATCTTTCTGTTCAAGCGCCATCTAC”, the binding signal was 0.96 RPM ratio (pull-down/input).
